{"source": "patent US11261201B2", "about": "(priority 2018, dated 2022)", "origin": "cited, not measured here", "target": "LeuS (Escherichia coli, UniProt P07813)", "sequence (P07813 whole entry)": "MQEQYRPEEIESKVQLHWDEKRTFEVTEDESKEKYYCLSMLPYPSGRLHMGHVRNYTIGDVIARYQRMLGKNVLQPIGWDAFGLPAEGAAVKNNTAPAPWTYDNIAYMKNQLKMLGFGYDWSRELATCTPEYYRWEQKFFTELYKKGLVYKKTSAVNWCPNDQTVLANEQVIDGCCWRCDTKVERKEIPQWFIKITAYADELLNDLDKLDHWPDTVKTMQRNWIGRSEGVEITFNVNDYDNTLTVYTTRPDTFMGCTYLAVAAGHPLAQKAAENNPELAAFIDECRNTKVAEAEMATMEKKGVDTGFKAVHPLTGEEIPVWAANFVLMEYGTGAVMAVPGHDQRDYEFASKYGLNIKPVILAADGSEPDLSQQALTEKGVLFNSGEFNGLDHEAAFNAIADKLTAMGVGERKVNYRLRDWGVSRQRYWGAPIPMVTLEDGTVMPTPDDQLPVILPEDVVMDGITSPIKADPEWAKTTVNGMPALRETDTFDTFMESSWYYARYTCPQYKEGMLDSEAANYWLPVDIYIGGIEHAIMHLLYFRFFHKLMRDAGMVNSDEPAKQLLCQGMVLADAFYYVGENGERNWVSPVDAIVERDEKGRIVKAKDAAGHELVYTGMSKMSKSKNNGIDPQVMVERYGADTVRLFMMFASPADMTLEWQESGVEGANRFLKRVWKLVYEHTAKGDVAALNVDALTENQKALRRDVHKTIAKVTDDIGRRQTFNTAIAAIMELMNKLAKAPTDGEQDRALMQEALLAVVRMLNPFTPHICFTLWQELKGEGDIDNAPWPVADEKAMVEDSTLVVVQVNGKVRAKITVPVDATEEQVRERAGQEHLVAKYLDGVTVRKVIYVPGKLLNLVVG", "details": "Anacor's Anti-LeuS AN3365; cited from earlier work", "data": [{"smiles": "NC[C@H]1OB(O)c2c(OCCCO)cccc21", "note": "[AN3365]", "values": [{"measurement": "outcome in clinical trials", "result": "failed in clinical trials due to a high frequency of resistance"}]}]}
